± gives the standard deviation of the averaged measurements. The list shows a part of the results.
These sequences were tested on PfAP2-LT AP2 domain (GST-tagged) (assay: gcPBM binding intensity (ln(normalized median fluorescence intensity)); higher = stronger DNA binding).
In short: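 Plasmodium falciparum DNA-binding domains carrying a GST tag were expressed in E. coli and applied for 1 h, at about 25 μg on average, to an Agilent 4 × 180k array. The array held primer-extended double-stranded 36-bp intergenic genomic probes together with negative controls, and binding took place in 1× PBS with 1% milk, 0.2 mg/ml BSA, 0.5% salmon testes DNA and 0.03% Triton X-100. An Alexa488 anti-GST antibody detected bound protein, and the array was scanned at 488 nm. Binding intensity is taken as the highest Masliner-normalised natural-log median intensity across replicate spots of either probe orientation.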

Sequence | gcPBM binding intensity (ln)
AAAAAAAACGAACACACACACAAATATGTAAAAATA [CACACA_site6673] | 9.87 ± 0.28
TTAACAAATAGACACACACACACACGCAAAAAAAAA [CACACA_site6387] | 10.3 ± 0.33
ATATATATATTTACATGTACACATCTATATATAAAC [XGTACX_site5581] | 8.99 ± 0.35
TTTTTTTTTCATTATTGTACATTGAAACTTCATTTT [XGTACX_site6041] | 8.84 ± 0.5
AAAAAAAAAAAATGTGCATGCTATATATATATATAT [TGCATGCA_site727] | 9.75 ± 0.16
GAATATAAACATATTACACACATCTATCTGTACATT [CACACA_site5114] | 9.41 ± 0.2
TGGTATCAAAAGAATACACACACACCGACATATATA [CACACA_site9265] | 9.8 ± 0.34
TACATACATACATACACACACACATATAAATACATA [CACACA_site4626] | 10.1 ± 0.4
TCTCTAACTTTTAATACACACAAATAAATAAATAAA [CACACA_site6245] | 8.48 ± 0.53
GTTTTATTTATTTCATGTACACAAAAAAGGTTTTAA [XGTACX_site6525] | 8.53 ± 0.47
AAAATAAAATAATAAAATAAAATAATAATAAAATAA [TGCATGCA_negctrl_site401] | 8.66 ± 0.55
AATACATATATATATTGTACATATAGGGAAAAATTA [XGTACX_site2275] | 8.96 ± 0.49
GTGGGAAACATAAACACACACAAAAAGAAAAAATAG [CACACA_site4810] | 9.45 ± 0.54
ACTTATAAAATAACATGTACAAATATTTATTATATA [XGTACX_site133] | 8.66 ± 0.49
AATATTTTTTTATAAACACACATATATATAAATATA [CACACA_site3524] | 8.53 ± 0.4
TATATAAATATAATATGTACATATAATATGTATATA [XGTACX_site8120] | 8.77 ± 0.38
TAATAATTTATATATGCATGTCAAAATAATATTAAA [TGCATGCA_site12] | 8.37 ± 0.48
TATATATTTTTATGTGTGCACTGTTTCATAAAAGAA | 8.84 ± 0.36
TATGGTAACATATGCTGTACAATATAATATGTTTAA [XGTACX_site1601] | 8.7 ± 0.45
AAAAAAAAAAGGTGTACATGCAAAATAAATTCTTAA [TGCATGCA_site556] | 8.93 ± 0.48
AAATTATAAATACCTACACACTTATCAAAATAAATT [CACACA_site5280] | 8.82 ± 0.33
TAAACATAAATATACACACAAACATATATGTATTTT [CACACA_site1214] | 9.11 ± 0.38
AAAAAAAAAAAACACACACACACACCGACAAAATAT [CACACA_site8411] | 10.4 ± 0.25
GATGATATATATTAGCGTACATGTATATATACCATT [XGTACX_site6404] | 9.05 ± 0.36
AAAATTTCAAATAACACACACTAATATATATCTGTA [CACACA_site4904] | 9.14 ± 0.24

Source: the supplement of paper PMC11417369
